# Laboratory results reported in the supplement of paper PMC8728848.
# This is one part of the list.
# B1: Nictaba (Nicotiana tabacum), Q94EW1 (protein)
# chain: MQGQWIAARDLSITWVDNPQYWTWKTVDPNIEVAELRRVAWLDIYGKIETKNLIRKTSYAVYLVFKLTDNPRELERATASLRFVNEVAEGAGIEGTTVFISKKKKLPGELGRFPHLRSDGWLEIKLGEFFNNLGEDGEVEMRLMEINDKTWKSGIIVKGFDIRPN
# Tests used:
# Test in all cases: glycan array binding signal (z-score within array); higher = stronger binding
# Settings in all cases: glycan notation: IUPAC condensed, linker removed
# Fuc(a1-2)Gal = biological target: Fuc(a1-2)Gal
# Method in brief: (§1)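 Glycan array data were curated from 3228 arrays in the Consortium for Functional Glycomics database and kept only where the protein sequence was available. Glycan names were converted to IUPAC-condensed notation, and columns mapping to the same glycan were averaged. The binding signal is a within-array Z-score, averaged across arrays of the same protein sequence at different concentrations or buffers and across linkers. Negative Z-scores can be read as non-binding.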
# Fuc(a1-2)Gal(b1-3)GalNAc = biological target: Fuc(a1-2)Gal(b1-3)GalNAc
# Method in brief: as §1
# [1] = biological target: Fuc(a1-2)Gal(b1-3)GalNAc(a1-3)[Fuc(a1-2)]Gal(b1-4)Glc
# Method in brief: as §1
# [2] = biological target: Fuc(a1-2)Gal(b1-3)GalNAc(a1-3)[Fuc(a1-2)]Gal(b1-4)GlcNAc
# Method in brief: as §1
# [3] = biological target: Fuc(a1-2)Gal(b1-3)GalNAc(b1-3)Gal
# Method in brief: as §1
# [4] = biological target: Fuc(a1-2)Gal(b1-3)GalNAc(b1-3)Gal(a1-4)Gal(b1-4)Glc
# Method in brief: as §1
# [5] = biological target: Fuc(a1-2)Gal(b1-3)GalNAc(b1-3)Gal(b1-4)Glc
# Method in brief: as §1
# [6] = biological target: Fuc(a1-2)Gal(b1-3)GalNAc(b1-4)[Neu5Ac(a2-3)]Gal(b1-4)Glc
# Method in brief: as §1
# Fuc(a1-2)Gal(b1-3)GlcNAc = biological target: Fuc(a1-2)Gal(b1-3)GlcNAc
# Method in brief: as §1
# [7] = biological target: Fuc(a1-2)Gal(b1-3)GlcNAc(b1-2)Man(a1-3)[Fuc(a1-2)Gal(b1-3)GlcNAc(b1-2)Man(a1-6)]Man(b1-4)GlcNAc(b1-4)GlcNAc
# Method in brief: as §1
# [8] = biological target: Fuc(a1-2)Gal(b1-3)GlcNAc(b1-2)Man(a1-3)[Fuc(a1-2)Gal(b1-3)GlcNAc(b1-2)Man(a1-6)]Man(b1-4)GlcNAc(b1-4)[Fuc(a1-6)]GlcNAc
# Method in brief: as §1
# [9] = biological target: Fuc(a1-2)Gal(b1-3)GlcNAc(b1-3)Gal(b1-4)Glc
# Method in brief: as §1
# [10] = biological target: Fuc(a1-2)Gal(b1-3)GlcNAc(b1-3)GalNAc
# Method in brief: as §1
# [11] = biological target: Fuc(a1-2)Gal(b1-3)GlcNAc(b1-3)[Fuc(a1-2)Gal(b1-3)GlcNAc(b1-6)]GalNAc
# Method in brief: as §1
# [12] = biological target: Fuc(a1-2)Gal(b1-3)GlcNAc(b1-3)[Fuc(a1-3)[Gal(b1-4)]GlcNAc(b1-6)]Gal(b1-4)Glc
# Method in brief: as §1
# [13] = biological target: Fuc(a1-2)Gal(b1-3)GlcNAc(b1-3)[Gal(b1-4)GlcNAc(b1-6)]Gal(b1-4)Glc
# Method in brief: as §1
# [14] = biological target: Fuc(a1-2)Gal(b1-3)GlcNAc(b1-3)[Neu5Ac(a2-6)Gal(b1-4)GlcNAc(b1-6)]Gal(b1-4)Glc
# Method in brief: as §1
# [15] = biological target: Fuc(a1-2)Gal(b1-3)GlcNAc6S
# Method in brief: as §1
# [16] = biological target: Fuc(a1-2)Gal(b1-3)[Fuc(a1-4)]GlcNAc
# Method in brief: as §1
# [17] = biological target: Fuc(a1-2)Gal(b1-3)[Fuc(a1-4)]GlcNAc(b1-2)Man(a1-3)[Fuc(a1-2)Gal(b1-3)[Fuc(a1-4)]GlcNAc(b1-2)Man(a1-3)]Man(b1-4)GlcNAc(b1-4)GlcNAc
# Method in brief: as §1
# [18] = biological target: Fuc(a1-2)Gal(b1-3)[Fuc(a1-4)]GlcNAc(b1-2)Man(a1-3)[Fuc(a1-2)Gal(b1-3)[Fuc(a1-4)]GlcNAc(b1-2)Man(a1-6)]Man(b1-4)GlcNAc(b1-4)GlcNAc
# Method in brief: as §1
# [19] = biological target: Fuc(a1-2)Gal(b1-3)[Fuc(a1-4)]GlcNAc(b1-2)Man(a1-3)[Fuc(a1-2)Gal(b1-3)[Fuc(a1-4)]GlcNAc(b1-2)Man(a1-6)]Man(b1-4)GlcNAc(b1-4)[Fuc(a1-6)]GlcNAc(b1-4)[Fuc(a1-6)]GlcNAc
# Method in brief: as §1
# [20] = biological target: Fuc(a1-2)Gal(b1-3)[Fuc(a1-4)]GlcNAc(b1-3)[Fuc(a1-3)[Gal(b1-4)]GlcNAc(b1-6)]Gal(b1-4)Glc
# Method in brief: as §1
# [21] = biological target: Fuc(a1-2)Gal(b1-3)[Fuc(a1-4)]GlcNAc(b1-3)[Gal(b1-4)GlcNAc(b1-6)]Gal(b1-4)Glc
# Method in brief: as §1
# [22] = biological target: Fuc(a1-2)Gal(b1-4)Fuc(a1-3)]GlcNAc(b1-2)Man(a1-3)[Fuc(a1-2)Gal(b1-4)[Fuc(a1-3)]GlcNAc(b1-2)Man(a1-6)]Man(b1-4)GlcNAc(b1-4)GlcNAc
# Method in brief: as §1
# Fuc(a1-2)Gal(b1-4)Glc = biological target: Fuc(a1-2)Gal(b1-4)Glc
# Method in brief: as §1
# Fuc(a1-2)Gal(b1-4)Glc6S = biological target: Fuc(a1-2)Gal(b1-4)Glc6S
# Method in brief: as §1
# Fuc(a1-2)Gal(b1-4)GlcNAc = biological target: Fuc(a1-2)Gal(b1-4)GlcNAc
# Method in brief: as §1
# [23] = biological target: Fuc(a1-2)Gal(b1-4)GlcNAc(b1-2)Man
# Method in brief: as §1
# [24] = biological target: Fuc(a1-2)Gal(b1-4)GlcNAc(b1-2)Man(a1-3)[Fuc(a1-2)Gal(b1-4)GlcNAc(b1-2)Man(a1-6)]Man(b1-4)GlcNAc(b1-4)GlcNAc
# Method in brief: as §1
# [25] = biological target: Fuc(a1-2)Gal(b1-4)GlcNAc(b1-2)Man(a1-3)[Fuc(a1-2)Gal(b1-4)GlcNAc(b1-2)Man(a1-6)]Man(b1-4)GlcNAc(b1-4)[Fuc(a1-6)]GlcNAc
# Method in brief: as §1
# [26] = biological target: Fuc(a1-2)Gal(b1-4)GlcNAc(b1-2)[Fuc(a1-2)Gal(b1-4)GlcNAc(b1-4)]Man(a1-3)[Fuc(a1-2)Gal(b1-4)GlcNAc(b1-2)Man(a1-6)]Man(b1-4)GlcNAc(b1-4)GlcNAc
# Method in brief: as §1
# [27] = biological target: Fuc(a1-2)Gal(b1-4)GlcNAc(b1-3)Gal(b1-4)GlcNAc
# Method in brief: as §1
# [28] = biological target: Fuc(a1-2)Gal(b1-4)GlcNAc(b1-3)Gal(b1-4)GlcNAc(b1-2)Man(a1-3)[Fuc(a1-2)Gal(b1-4)GlcNAc(b1-3)Gal(b1-4)GlcNAc(b1-2)Man(a1-6)]Man(b1-4)GlcNAc(b1-4)GlcNAc
# Method in brief: as §1
# [29] = biological target: Fuc(a1-2)Gal(b1-4)GlcNAc(b1-3)Gal(b1-4)GlcNAc(b1-3)Gal(b1-4)GlcNAc
# Method in brief: as §1
# [30] = biological target: Fuc(a1-2)Gal(b1-4)GlcNAc(b1-3)GalNAc
# Method in brief: as §1
# [31] = biological target: Fuc(a1-2)Gal(b1-4)GlcNAc(b1-3)[Fuc(a1-2)Gal(b1-4)GlcNAc(b1-6)]GalNAc
# Method in brief: as §1
binder,measurement,setting,value
B1,glycan array binding signal (z-score),Fuc(a1-2)Gal,-0.273
same,glycan array binding signal (z-score),Fuc(a1-2)Gal(b1-3)GalNAc,-0.319
same,glycan array binding signal (z-score),[1],-0.299
same,glycan array binding signal (z-score),[2],-0.307
same,glycan array binding signal (z-score),[3],-0.281
same,glycan array binding signal (z-score),[4],-0.31
same,glycan array binding signal (z-score),[5],-0.254
same,glycan array binding signal (z-score),[6],-0.288
same,glycan array binding signal (z-score),Fuc(a1-2)Gal(b1-3)GlcNAc,-0.277
same,glycan array binding signal (z-score),[7],0.189
same,glycan array binding signal (z-score),[8],-0.242
same,glycan array binding signal (z-score),[9],-0.249
same,glycan array binding signal (z-score),[10],-0.286
same,glycan array binding signal (z-score),[11],-0.378
same,glycan array binding signal (z-score),[12],-0.268
same,glycan array binding signal (z-score),[13],-0.282
same,glycan array binding signal (z-score),[14],-0.329
same,glycan array binding signal (z-score),[15],-0.382
same,glycan array binding signal (z-score),[16],-0.295
same,glycan array binding signal (z-score),[17],-0.321
same,glycan array binding signal (z-score),[18],-0.2
same,glycan array binding signal (z-score),[19],-0.313
same,glycan array binding signal (z-score),[20],-0.318
same,glycan array binding signal (z-score),[21],-0.29
same,glycan array binding signal (z-score),[22],1.79
same,glycan array binding signal (z-score),Fuc(a1-2)Gal(b1-4)Glc,-0.337
same,glycan array binding signal (z-score),Fuc(a1-2)Gal(b1-4)Glc6S,-0.254
same,glycan array binding signal (z-score),Fuc(a1-2)Gal(b1-4)GlcNAc,-0.297
same,glycan array binding signal (z-score),[23],-0.383
same,glycan array binding signal (z-score),[24],2.47
same,glycan array binding signal (z-score),[25],0.325
same,glycan array binding signal (z-score),[26],0.135
same,glycan array binding signal (z-score),[27],-0.274
same,glycan array binding signal (z-score),[28],3.54
same,glycan array binding signal (z-score),[29],-0.301
same,glycan array binding signal (z-score),[30],-0.258
same,glycan array binding signal (z-score),[31],-0.2
